From paper PMC11603075 (Communications Biology, 2024)

Key:
KDM4E [1] = biological target: T1, KDM4E (Homo sapiens, UniProt B2RXH2); test: FDH-coupled demethylation assay, Michaelis–Menten kinetics; format: biochemical
T1 construct: KDM4E1–337; made in house; host or cells: E. coli
T1 sequence (B2RXH2 1-337): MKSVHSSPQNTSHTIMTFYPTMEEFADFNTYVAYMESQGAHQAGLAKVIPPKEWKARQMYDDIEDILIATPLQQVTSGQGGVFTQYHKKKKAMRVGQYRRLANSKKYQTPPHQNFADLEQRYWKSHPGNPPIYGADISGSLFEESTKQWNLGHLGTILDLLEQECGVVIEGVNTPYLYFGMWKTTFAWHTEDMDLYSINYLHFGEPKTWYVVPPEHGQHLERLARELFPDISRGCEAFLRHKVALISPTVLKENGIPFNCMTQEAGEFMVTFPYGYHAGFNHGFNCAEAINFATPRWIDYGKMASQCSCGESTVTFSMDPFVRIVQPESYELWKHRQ
Procedure: The RDM activity of KDM4E with H2a(1–20)R3me2a was compared with demethylation of H3(1–21)R2me2a using a formaldehyde dehydrogenase (FDH) assay[23],[24]. KDM4E catalysed demethylation of H2a R3me2a was less efficient than H3 R2me2a by approximately three-fold under the same conditions (kcat/KM 0.89 hr^−1 µM^−1 for H2a(1–20)R3me2a and 2.58 hr^−1 µM^−1 for H3(1–21)R2me2a).
When LC–MS-based assays were used, time course assays were carried out as described; product formation (%) was plotted against time (s) using GraphPad Prism5 version 5.04. The gradient of each reaction was calculated by fitting a line of linear regression to the first-order region. The resultant slope was used to calculate reaction rate in µM hr^−1. The rate versus peptide concentration (µM) was plotted and the KM, kcat, and Vmax values determined by fitting the Michaelis–Menten equation using GraphPad Prism5 version 5.04. When a formaldehyde dehydrogenase coupled (FDH) based enzyme activity assay was used, analyses were carried out as above and as previously detailed; linear regression was fitted to the first order region of a graph of relative fluorescent units (RFU) vs time (s).
Supplementary Figure 3 KDM4E catalysed H2a(1–20) hydroxylation and H3(1–21)R2me2a demethylation. Michaelis–Menten plots monitoring: ( a) hydroxylation of H2a(1–20) measured using LC– MS (R2 value obtained was 0.5 indicating poor goodness of fit, likely due to limited data at low substrate concentrations due to signal:noise limitations), (b) demethylation of H2a(1–20)R3me2a, and (c) demethylation of H3(1–21)R2me2a measured using the FDH-coupled demethylation assay. (d) Kinetic parameters obtained in (a –c). Error bars: SEM, n = 3 assay repeats; each assay replicate has n = 3 independent assays. Conditions: LC–MS assay: 2 µM KDM4E, varied concentrations of peptide, 10 µM (NH4)2Fe(SO4)2, 100 µM sodium L-ascorbate, 200 µM 2OG, and 50 mM HEPES pH 7.5, FDH assay: 2 µM […]
50 mM HEPES pH 7.5, 0.01% Tween, 500 µM β-NAD, 1 µM FDH.
(§1) (1 picture or pasted object on this page, not shown here)

KDM4E [2] = biological target: T1, KDM4E; test: LC–MS conversion (combined RDM and hydroxylation), KDM4E; format: biochemical; settings: KDM4E 2 µM, 120 min
Procedure: MS-based screening assays with peptides and calf thymus histones were as reported; see Supplementary Table 6 for conditions. Time course assays were based on reported procedures. In brief, equal volumes of the enzyme and substrate solutions were combined to initiate the reaction; 10 µL of 2% (v/v) formic acid (HCOOH) in ddH2O or 100% methanol was added to 10 µL of the reaction mixture to quench reactions at different time points. Unless otherwise stated, time course assays were carried out in triplicate. In some cases, LC–MS was used instead of MALDI-TOF MS to avoid a MALDI matrix induced artefact with the hydroxylated product (Supplementary Fig. 16).
Supplementary Figure 6 Conversion of H2a peptides with increased concentrations of KDM4D.
Comparison of combined RDM and apparent hydroxylation activities of KDM4E and KDM4D with H2a(1– 20) and H2a(1–20 )R3 me2a. (a) Representative LC–MS spectra showing (120-minute incubation) (from top to bottom) KDM4E at 2 µM, KDM4D at 2 µM, and KDM4D at 10 µM with (from left to right) H2 a(1 –2 0 ) a n d […]
shift (hydroxylation). Charge state of labelled ions: [M + H]5+. *Low-level peaks indicating ~5% – 14 Da/+16 Da. (b) Bar graph comparing % product formation by KDM4E and KDM4D of H2a(1–20) and H2a(1– 20)R3me2a; n = 3 (independent assays). Se e Supplementary Table 6 for assay conditions.
as §1
[ E nz ym e] [Peptide] [2OG] [Ascorbate] [(NH4)2F e(S O4)2] [TCEP] Buffer pH7.5 Enzyme Cognate substrate (mM) (mM) (mM) (mM) (mM) (mM) [HE PE S]
Supplementary Table 6 Summary of MS assay conditions for substrate screening. These conditions enabled efficient turnover of established substrates. Reactions were carried out at 37 °C unless otherwise st ated. […]

KDM4E1–337 = test: MALDI–TOF MS product formation, KDM4E1–337; format: biochemical, human; settings: 60 min; for % product formation: 1 µM enzyme, 10 µM peptide
Procedure: Supplementary Figure 5 H2aR3me2a is a substrate of full length KDM4A. (a) Representative MALDI–T OF
MS (60 -minute incubation) (from top to bottom) K DM4A 1–1064, KDM4A1–35 9 and KDM4E1–337 w it h H 2 a( 1–
Representative data are shown from n = 3 (independent assays). Charge state of labelled ions: [MH]+. (b)
Bar graph comparing % product format ion of H2a(1 –20)R3me2a by KDM4A1–10 64, KDM4A1–359 and KDM4E1–
33 7, analysed by MALDI–TOF MS. n = 2/3 (independent assays). Conditions: 1 µM KDM4A1–359 and KDM4E1–
(NH4)2Fe(SO4)2, and 50 mM HEPES (pH 7.5), 1 mM TCEP, 0.02% (v/v) Triton-X . […]

- kcat/KM (demethylation) (KDM4E [1]; FDH assay, 2 µM KDM4E, 200 µM 2OG, pH 7.5, n = 3 assay repeats): 0.89 h⁻¹ µM⁻¹
- affinity relative to H3(1–21)R2me2a (fold higher) (KDM4E [1]; from KM): four
- kcat/KM relative to KDM substrate H3 K9me3 (fold less) (KDM4E [1]; same FDH assay, H3 K9me3 from ref 7): 39 fold
- demethylation efficiency relative to H3 R2me2a (fold less efficient) (KDM4E [1]; same conditions): approximately three
- % product formation (combined RDM and apparent hydroxylation) (KDM4E [2]; replicate 1): 67.0186%
- % product formation (combined RDM and apparent hydroxylation) (KDM4E [2]; replicate 2): 79.659%
- % product formation (combined RDM and apparent hydroxylation) (KDM4E [2]; replicate 3): 83.5069%
Substance: Ac - SGR [ me 2a ] GKQ GGKAR AKAKT R SSR [H2a(1–20)R3me2a, H2a(1–20)R3me2a without a biotin tag]
- % product formation (KDM4E1–337; replicate 1): 38.2963%
- % product formation (KDM4E1–337; replicate 2): 33.1012%
- –14 Da mass shift (demethylation) (KDM4E1–337; MALDI–TOF MS, n = 3): –14 Da mass shifts
